# Assay results reported in article PMC12820563, “FoxP3 forms a head-to-head dimer in vivo and stabilizes its multimerization on adjacent microsatellites”.
# The list shows a part of the results.
# Target: T1, MBP-FoxP1dN (Mus musculus, UniProt P58462 326-579)
# T1 sequence: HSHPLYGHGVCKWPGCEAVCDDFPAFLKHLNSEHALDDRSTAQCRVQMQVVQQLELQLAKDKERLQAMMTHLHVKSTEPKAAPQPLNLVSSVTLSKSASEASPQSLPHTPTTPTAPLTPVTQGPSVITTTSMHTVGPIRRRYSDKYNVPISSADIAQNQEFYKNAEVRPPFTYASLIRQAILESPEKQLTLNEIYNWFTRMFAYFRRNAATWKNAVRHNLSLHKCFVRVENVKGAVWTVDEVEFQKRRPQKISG
# Experiment: PD-seq (MBP pull-down with sequencing); 20 mM Tris-HCl pH 7.5, 100 mM NaCl, 1.5 mM MgCl2, 0.4 uM protein, 0.1 uM dsDNA library, 30 min, room temperature, amylose pull-down; high values mean tight binding
# Settings: protein: recombinant; tags: His6-MBP; chain copies: 2; dsDNA, one strand shown
# Summary of the method: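 Binding is given as reads-per-million enrichment, pull-down over input, with replicates pooled. The bait was an N-terminus-lacking mouse FoxP3 or FoxP1 fragment with a His6-MBP tag, expressed in E. coli and used at 0.4 µM with 0.1 µM Klenow-filled degenerate double-stranded DNA library for 30 min at room temperature in Tris pH 7.5 buffer with NaCl and MgCl2. Amylose resin pull-down with three washes was followed by proteinase K release, PCR barcoding and Illumina sequencing.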
row,Sequence,binding signal
1,GATGATTGTTCTCCCAGCTGATGAATTCCGGTAATCGAGTAAACAAATTTTCCTAATCTTTCTGTTCAAGCGCCATCTAC,1.11 RPM ratio (pull-down/input)
2,GATGATTGTTCTCCCAGCTGATGAATTTGCCTACTCGAGTAAACAAATTTTCCTAATCTTTCTGTTCAAGCGCCATCTAC,0.998 RPM ratio (pull-down/input)
3,GATGATTGTTCTCCCAGCTGATGAATTGTCAAATTCGAGTAAACAAATTTTCCTAATCTTTCTGTTCAAGCGCCATCTAC,1.09 RPM ratio (pull-down/input)
4,GATGATTGTTCTCCCAGCTGATGAATTTCCTATCTCGAGTAAACAAATTTTCCTAATCTTTCTGTTCAAGCGCCATCTAC,0.822 RPM ratio (pull-down/input)
5,GATGATTGTTCTCCCAGCTGATGAATTCCCGACCTCGAGTAAACAAATTTTCCTAATCTTTCTGTTCAAGCGCCATCTAC,0.731 RPM ratio (pull-down/input)
6,GATGATTGTTCTCCCAGCTGATGAATTTGACAACTCGAGTAAACAAATTTTCCTAATCTTTCTGTTCAAGCGCCATCTAC,0.984 RPM ratio (pull-down/input)
7,GATGATTGTTCTCCCAGCTGATGAATTCAAACTATCGAGTAAACAAATTTTCCTAATCTTTCTGTTCAAGCGCCATCTAC,1.03 RPM ratio (pull-down/input)
8,GATGATTGTTCTCCCAGCTGATGAATTTTTACATTCGAGTAAACAAATTTTCCTAATCTTTCTGTTCAAGCGCCATCTAC,0.983 RPM ratio (pull-down/input)
9,GATGATTGTTCTCCCAGCTGATGAATTGTGGTAGTCGAGTAAACAAATTTTCCTAATCTTTCTGTTCAAGCGCCATCTAC,1.03 RPM ratio (pull-down/input)
10,GATGATTGTTCTCCCAGCTGATGAATTTTGTTATTCGAGTAAACAAATTTTCCTAATCTTTCTGTTCAAGCGCCATCTAC,2.37 RPM ratio (pull-down/input)
11,GATGATTGTTCTCCCAGCTGATGAATTGGTTCAATCGAGTAAACAAATTTTCCTAATCTTTCTGTTCAAGCGCCATCTAC,1.04 RPM ratio (pull-down/input)
12,GATGATTGTTCTCCCAGCTGATGAATTAGGACAGTCGAGTAAACAAATTTTCCTAATCTTTCTGTTCAAGCGCCATCTAC,0.965 RPM ratio (pull-down/input)
13,GATGATTGTTCTCCCAGCTGATGAATTTGGAAACTCGAGTAAACAAATTTTCCTAATCTTTCTGTTCAAGCGCCATCTAC,0.898 RPM ratio (pull-down/input)
14,GATGATTGTTCTCCCAGCTGATGAATTTCCCGTCTCGAGTAAACAAATTTTCCTAATCTTTCTGTTCAAGCGCCATCTAC,0.813 RPM ratio (pull-down/input)
15,GATGATTGTTCTCCCAGCTGATGAATTATGTTGATCGAGTAAACAAATTTTCCTAATCTTTCTGTTCAAGCGCCATCTAC,2.81 RPM ratio (pull-down/input)
16,GATGATTGTTCTCCCAGCTGATGAATTCCAGCGATCGAGTAAACAAATTTTCCTAATCTTTCTGTTCAAGCGCCATCTAC,0.786 RPM ratio (pull-down/input)
17,GATGATTGTTCTCCCAGCTGATGAATTGACCCCCTCGAGTAAACAAATTTTCCTAATCTTTCTGTTCAAGCGCCATCTAC,0.848 RPM ratio (pull-down/input)
18,GATGATTGTTCTCCCAGCTGATGAATTGCCACCATCGAGTAAACAAATTTTCCTAATCTTTCTGTTCAAGCGCCATCTAC,1.14 RPM ratio (pull-down/input)
